# Where “and” joins values, the source holds several entries; their conditions need not be identical. Equal values may be shown once. Screen size: about 380,000 compounds; about 4,000 (1.1%) were called active. This list was built around the results that the source calls inconclusive (neither active nor inactive); the mix of calls is not that of the screen. The call rests on the fitted dose curve; in most records, active means well fitted activation curve with a large enough effect; inconclusive means small, poorly fitted or top-dose-only effect; inactive means no such curve, though single readings can be large or run the other way. Where the call is inconclusive, the potency comes from a doubtful curve fit.
# Assay: qHTS Assay to Identify Small Molecule Activators of BRCA1 Expression; further: nearly all actives have a fitted effect of over 80% in size
# Conditions: MCF7-BRCA1-FFLuc reporter, luminescence, 48 h; activation: at 46.1 µM (top of the series), scaled: vehicle 0%, 10 µM genistein 100%
# Text: Functionally, BRCA1 has been implicated in a wide array of cellular activities, including DNA damage repair, cell-cycle checkpoint control, growth inhibition, apoptosis, transcriptional regulation, chromatin remodeling, protein ubiquitylation, and mammary stem cell self-renewal and differentiation. Reduction in BRCA1 levels is associated with an increase in tumor growth and resistance to anti-estrogenic agents, such as tamoxifen, while an increase in BRCA1 expression leads to cell growth arrest and apoptosis. […] The frequent loss of BRCA1 expression in invasive breast cancers in the absence of somatic mutation has been attributed to numerous mechanisms, including hypermethylation of the BRCA1 promoter, exaggerated ubiquitylation of BRCA1 protein, and improper intracellular localization. […] Basal-like breast cancers (BLBCs) are associated with an aggressive clinical course, resistance to chemotherapy, and typically lack expression of estrogen receptor (ER), progesterone receptor (PR), and epidermal growth factor receptor 2 (HER2). BLBCs account for 10-17% of all breast cancers, have few therapeutic options, and are considered the biggest unmet need in the treatment of breast cancer. Conversely, tumors which maintain expression of functional BRCA1 are almost uniformly luminal type cancers, and are accordingly associated with more indolent clinical courses, responsiveness to endocrine therapies, and improved survival.
# As such, it is possible that an increase in BRCA1 expression would enable cellular differentiation and restore tumor suppressor function, resulting in delayed tumor growth and less aggressive, more treatable breast cancers. The long term goal of this proposal is to develop a novel prevention or therapeutic agent for breast cancer patients. To accomplish this goal, the overall objective of this proposal is to access the resources provided by the NIH Molecular Libraries Roadmap Initiative and the Molecular Libraries Probe Production Centers Network (MLPCN) to discover and develop new chemical activator probes that will increase BRCA1 expression and function.
# NIH Molecular Libraries Probe Production Network [MLPCN]
# NIH Chemical Genomics Center [NCGC]
# PI Name: Lisa Harlan-Williams, University of Kansas Medical Center
# 5microl of MCF7-BRCA1-FFLuc cell suspension (400 cells/microl in phenol-red free MEM) are dispensed into Greiner white solid bottom 1536-well assay plates, yielding a final well density of 2000 cells/well. Plates are incubated for 2 hours at 37 degrees C in 5% humidified CO2 to allow cell attachment. Compounds are then transferred via Kalypsys pin tool equipped with 1536-pin array (10nl slotted pins, V&P Scientific, San Diego, CA). The plates are then incubated at 37 degrees C in 5% humidified CO2 for 48 hours. The NCGC in-house luciferase substrate reagent, Buglite, is then added (2.5microl) and plates incubated for 15 minutes, before being transferred to a ViewLux high-throughput CCD imager (PerkinElmer) wherein single end-point measurements of luminescence are acquired using a clear filter. The positive control compound, genistein, will be pinned into dedicated control columns on each plate, including a 16-point 1:3 titration in duplicate, as well as a 10microM maximum activation control, allowing for the normalization of screening activity. DMSO will be pinned into a separate column as a negative control.
# All screening operations will be performed on a fully integrated robotic system (Kalypsys, San Diego, CA) containing one RX-130 and two RX-90 anthropomorphic robotic arms (Staubli, Duncan, SC). Library plates will be screened starting from the lowest and proceeding to the highest concentration. Vehicle-only plates, with DMSO being pin-transferred to columns 5-48, will be inserted uniformly at the beginning and the end of each library in order to monitor and record any shifts in the background, which can be affected by reagent dispensers or loss in enzyme activity over time. […]
# Potency means the concentration at half of the fitted maximal effect; tags describe the fitted curve by direction and shape.
SMILES,Potency,activation
C[C@]12CC[C@H]3[C@@H](CC[C@]4(O)C[C@@H](O)CC[C@]34C=O)[C@@]1(O)CC[C@@H]2C1=CC(=O)OC1,inactive,–
Cc1ccc(C(C)(C)NC(=O)C2CCC(=O)N(C3CCCCCC3)C2)cc1 (centres undefined),"inconclusive: 25.1 µM [activator, single point]",–
O=c1oc2ccccc2n1CCCOc1ccccc1,"inconclusive: 11.2 µM [activator, partial curve, poor fit]",–
CCN(CC)C(=O)Oc1ccc2ccccc2c1Cl,"inconclusive: 12.6 µM [activator, single point]",–
CC[C@@]1(C(=O)OC)N[C@H](CN(C)C(=O)Nc2ccc(OC)cc2)[C@@H]2C(=O)N(Cc3ccccc3)C(=O)[C@@H]21,active: 10 µM,–
COc1ccc(NC(=O)O/N=C/c2ccccc2)cc1,"inconclusive: 11.2 µM [activator, partial curve, poor fit]",–
CC(O)C1C=CC=CC(=O)OC2CC3OC4C5OC5(C)CCC4(COC(=O)C4OC4(C)C(O)CO1)C2(C)C31CO1 (centres undefined),–,inconclusive: -90% [activator]
Fc1ccccc1CSc1ncnc2c1ncn2C1CCCO1 (centres undefined),active: 3.55 µM,–
Cc1nn(CC(C)C)c(Cl)c1C(=O)NC1CCC(C)CC1 (centres undefined),active: 3.16 µM,–
CCOC(=O)c1sc(=NC(=O)c2ccc(C)c(C)c2)n(C)c1C,active: 3.16 µM,–
O=C(CN1CCCC1)Nc1ccc(NC(=O)Nc2ccccc2)cc1,active: 2.82 µM,–
O=C1c2ccccc2-c2cccc3cccc1c23,"inconclusive: 31.6 µM [activator, single point]",–
CC(c1nccs1)N(C)C(=O)c1cn(Cc2cccc3ccccc23)nn1 (centres undefined),"inconclusive: 17.8 µM [activator, partial curve, poor fit]",–
CC(C)N(Cc1nccn1C)C(=O)CCc1nnc(CCCc2ccccc2)o1,"inconclusive: 17.8 µM [activator, single point]",–
COc1ccc(CNC(=O)c2ccc(C(C)C)cc2)cc1,"inconclusive: 2 µM [activator, partial curve, poor fit]",–
Nc1nc(SCc2ccc(Cl)cc2Cl)n[nH]1,"inconclusive: 8.91 µM [activator, partial curve, poor fit]",–
CCNC(=O)O/N=C(\C)c1sc(-c2ccccc2)nc1C,"inconclusive: 17.8 µM [activator, partial curve, poor fit]",–
Cc1ccc(NN=C2C(=O)OC(C)(C)OC2=O)c(C)c1,"inconclusive: 35.5 µM [activator, single point]",–
Cc1ccc2c(c1)C1CN(C)CCC1N2C(=O)Nc1cccc(C(F)(F)F)c1 (centres undefined),"inconclusive: 12.6 µM [activator, single point]",–
Cc1ccc(-n2c(=S)[nH]c3ccccc3c2=O)cc1F,"inconclusive: 15.8 µM [activator, single point]",–
CNc1cccc(-c2ccc(N3CCN(C)CC3)nc2)n1,"inconclusive: 2.82 µM [activator, full curve, poor fit]",–
CNC(C)C#Cc1ccc2oc3cc(C)c(C)cc3c(=O)c2c1 (centres undefined),"inconclusive: 1.26 µM [activator, full curve, poor fit]",–
O=C(CSc1nnc(NC(=O)c2ccccc2F)s1)NCc1ccc(F)cc1,active: 5.01 µM,–
Nc1ccc2c(c1)Cc1cc([N+](=O)[O-])ccc1-2,active: 10 µM,–
COc1ccc(-c2cc(=NCCCCCC(=O)O)c3cc(C)ccc3o2)cc1,"inconclusive: 20 µM [activator, partial curve, poor fit] and inconclusive: 31.6 µM [activator, single point]",–

SMILES,Potency,activation
Cc1ccc2c(c1N)C(=O)c1ccccc1C2=O,active: 10 µM,–
C=CCc1ccc(OCCn2nnc3ccccc32)c(OC)c1,"inconclusive: 3.16 µM [activator, full curve, poor fit]",–
Cc1nc2ccc(NC(=O)c3ccc(Cl)s3)cc2s1,active: 3.55 µM,–
CC(C)(C)c1csc(NC(=O)Nc2ccccc2)n1,"inconclusive: 3.55 µM [activator, full curve, poor fit]",–
O=C(CSCC(=O)N1CCOCC1)Nc1nc(-c2ccc3c(c2)OCO3)cs1,"inconclusive: 7.94 µM [activator, partial curve, poor fit]",–
O=C1N=C(N2CCCCC2)SC1=C1CCCCC1,"inconclusive: 2.82 µM [activator, full curve, poor fit]",–
CSc1cccc(CNC(=O)C2CCC(=O)N(Cc3cccc(C(F)(F)F)c3)C2)c1 (centres undefined),"inconclusive: 25.1 µM [activator, single point]",–
Nc1ccc(-c2ccccc2)cc1,"inconclusive: 17.8 µM [activator, partial curve, poor fit]",–
CCOC(=O)[C@]12Cc3cc(C)ccc3[C@H]1N(C1CCCCC1)C(=O)c1cc(OC)ccc12,inactive,–
CS(=O)(=O)NNC(=O)Cn1nnc(-c2ccc(OCc3ccccc3Cl)cc2)n1,active: 11.2 µM,–
Cc1cccc(OCCn2c(=O)oc3ccc(C)cc32)c1,active: 8.91 µM,–
COCCNc1oc(-c2ccc(OC)cc2)nc1C#N,"inconclusive: 22.4 µM [activator, single point]",–
COc1cccc(-n2cnc3sc(-c4ccccc4)cc3c2=O)c1,"inconclusive: 0.562 µM [activator, full curve, poor fit]",–
O=C(OCC(=O)c1cccs1)C1=COCCO1,active: 15.8 µM,–
ClCCN(CCCl)c1ccc(/C=C/c2sc3ccccc3[n+]2CCCCI)cc1,inactive,–
COc1cc(C(C)=O)ccc1OCc1cc(C(=O)N(C)CCC2CCCCO2)no1 (centres undefined),active: 3.55 µM,–
Cc1c(C(=O)N2CCOCC2)sc2nc(-c3ccccc3)cn12,"inconclusive: 3.55 µM [activator, partial curve, poor fit]",–
O=C1C2C3CCC(C3)C2C(=O)N1c1ccc(OS(=O)(=O)c2ccccc2)cc1 (centres undefined),"inconclusive: 2.24 µM [activator, full curve, poor fit]",–
CN(CC(=O)N1CCc2ccccc21)S(=O)(=O)c1cccs1,active: 3.98 µM,–
CCOc1ccc(NC(=O)C(=S)NC2CCCCC2)cc1,"inconclusive: 7.94 µM [activator, partial curve, poor fit]",–
O=C(C1CCCN(S(=O)(=O)c2ccc(F)cc2)C1)N1CCOCC1 (centres undefined),"inconclusive: 12.6 µM [activator, partial curve, poor fit]",–
Clc1cccc(Cl)c1Cn1nnc(N2CCCC2)n1,active: 11.2 µM,–
CC(=O)Nc1cccc2c1Cc1ccccc1-2,"inconclusive: 2.51 µM [activator, partial curve, poor fit]",–
CCC(=O)Nc1ccc(-c2ccc(N3CCN(C)CC3)nn2)cc1,"inconclusive: 10 µM [activator, partial curve, poor fit]",–
